Among all 340,000 compounds or so, about 12,000 (3.5%) were called active. This list was built around the results that the source calls inconclusive (neither active nor inactive); the mix of calls is not that of the screen. The call rests on the fitted dose curve; in most records, active means well fitted inhibition curve with a large enough effect; inconclusive means small, poorly fitted or top-dose-only effect, or another doubt; inactive means no such curve, though single readings can be large or run the other way. Potencies of inconclusive entries are left out as doubtful fits.
assay: qHTS Assay for Inhibitors of Hepatitis C Virus (HCV); settings: Huh7.5.1 HCVcc-Cre (HCVcc is cell-culture hepatitis C virus) infection, luciferase reporter, 44 h; activity change, negative = inhibition: at 41.8 µM (top of the series) unless noted
Method in brief: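 Reporter virus HCVcc-Cre (~0.5 moi) infects cells exposed to compound; seeding density 1,000 cells/well with 4 h settling beforehand. Luminescence, 15 sec read, taken 44 h post-infection following a 15 min RT substrate incubation.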
On the % scale 0 is the no-effect control and ±100 the full control effect; potency means the concentration at half of the fitted maximal effect; tags describe the fitted curve by direction and shape.

With CC(=O)Nc1ccc(C(=O)CSc2nnc(-c3ccc(O)cc3)n2CC2CCCO2)cc1 (centres undefined) as the molecule, how does the Potency read?
Its Potency is “inactive”.

Which Potency does the source give for Clc1cccc(OCCOCCN2CCNCC2)c1Cl here?
Its Potency is inconclusive [inhibitor, single point].

Which Potency does the source give for COc1cc(-c2cc(=O)c3c(O)c(OC)c(OC)cc3o2)cc(OC)c1O here?
The Potency was inconclusive [inhibitor, partial curve, poor fit].

With O=C(O)c1ccccc1OCc1nc2ccccc2s1 as the molecule, how does the Potency read?
Its Potency is “inactive”.

For COc1ccc(-c2nc(SCC(=O)NCc3ccco3)c(-c3ccccc3)[nH]2)cc1OC, which Potency is on record?
The Potency was inconclusive [inhibitor, single point].

With CC(C)CNC(=O)c1cccc(NC(=O)C2CCCO2)c1 (centres undefined) as the molecule, how does the Potency read?
Its Potency is inconclusive [inhibitor, single point].

For CCN(CC(=O)NCc1cccs1)S(=O)(=O)c1cccc(Br)c1, which Potency is on record?
The Potency was inconclusive [inhibitor, partial curve, poor fit].

Which Potency does the source give for O=C(NNC(=O)C1CCN(S(=O)(=O)c2c(Cl)cccc2Cl)CC1)c1ccccc1O here?
Its Potency is inconclusive [inhibitor, partial curve, poor fit].

Which Potency does the source give for COc1ccccc1-n1c(CNC(=O)c2ccco2)n[nH]c1=S here?
The Potency was “inactive”.

For CCn1c(SC(C)C(=O)NCC2CCCO2)nc2ccccc21 (centres undefined), which Potency is on record?
The Potency was inconclusive [inhibitor, full curve, poor fit].

For CCN=C1NN=C(c2ccc(C)cc2)CS1, which Potency is on record?
Its Potency is “inactive”.

For O=C(Cn1cnc2c(OCc3ccccc3)ncnc21)NCc1ccccn1, which Potency is on record?
Its Potency is inconclusive [inhibitor, single point].

Which Potency does the source give for COc1cccc(N2CCN(CC(=O)Nc3nnc(-c4ccccc4)s3)CC2)c1 here?
Its Potency is active: 6.31 µM.

Which Potency does the source give for O=C(Cc1ccccc1)NC(=S)Nc1ccc(OC(F)F)cc1 here?
The Potency was “inactive”.

Which Potency does the source give for Cc1noc(/C=C/N(C)C)c1S(=O)(=O)N1CCCC(C(=O)NCc2ccccc2Cl)C1 (centres undefined) here?
Its Potency is inconclusive [inhibitor, single point].

Which Potency does the source give for Cc1ccc(-n2nc3c(=O)n(CC(=O)NC4CCCCC4)nc(C)c3c2C)cc1 here?
The Potency was inconclusive [inhibitor, single point].

With COc1ccc(-c2noc(N3CCC(C(=O)Nc4ccc(OC)cc4OC)CC3)n2)cc1 as the molecule, how does the Potency read?
Its Potency is inconclusive [inhibitor, partial curve].

With CC(C)n1ncc2c(C(=O)NCCc3ccc(F)cc3)cc(C3CC3)nc21 as the molecule, how does the Potency read?
The Potency was inconclusive [inhibitor, full curve].

Which Potency does the source give for Cc1c(Cl)cccc1NC(=O)c1cc(-c2ccccc2O)n[nH]1 here?
The Potency was inconclusive [inhibitor, single point].

For CCc1ccc(S(=O)(=O)Nc2cccc(C3OCCCO3)c2)cc1, which Potency is on record?
Its Potency is inconclusive [inhibitor, full curve, poor fit].

Which Potency does the source give for COc1ccc(NC(=O)c2ccc(Br)o2)cc1 here?
Its Potency is “inactive”.

For Cc1cccc(Oc2ccccc2NS(=O)(=O)c2ccc(CCC(=O)O)cc2)c1, which Potency is on record?
The Potency was “inactive”.

Which Potency does the source give for CCCCC1(Cc2ccc([N+](=O)[O-])cc2)C(=O)N(c2ccccc2)N(c2ccccc2)C1=O here?
The Potency was active: 12.6 µM.

With CCOc1ccc(OCC)c(NC(=O)C2CCCN(S(=O)(=O)c3cnc[nH]3)C2)c1 (centres undefined) as the molecule, how does the Potency read?
The Potency was inconclusive [inhibitor, single point].

Which Potency does the source give for CC(CCc1ccccc1)NC(=O)C1CCCN(c2nnc(-n3cccc3)s2)C1 (centres undefined) here?
The Potency was inconclusive [inhibitor, single point].

For CCN(c1ccccc1)S(=O)(=O)c1ccc(C(=O)Nc2cc(C)ccn2)cc1, which Potency is on record?
The Potency was inconclusive [inhibitor, single point].

Which Potency does the source give for CCOc1ccccc1C(=O)NC(C(=O)Nc1ccccc1N1CCOCC1)C(C)C (centres undefined) here?
The Potency was inconclusive [inhibitor, single point].

With CC(=O)c1ccc(N2CCN(C(=O)/C=C/c3ccc4ccccc4n3)CC2)cc1 as the molecule, how does the Potency read?
Its Potency is inconclusive [inhibitor, single point].

For Cc1ccccc1NC(=O)CN1CCN(C(=O)c2ccco2)CC1, which Potency is on record?
The Potency was “inactive”.

For C[N+]1(CC2COC3(CCCCC3)O2)CCCCC1 (centres undefined), which Potency is on record?
Its Potency is “inactive”.

Which Potency does the source give for O=C1CCC/C(=N/Nc2ccc(Cl)cc2)C1 here?
The Potency was inconclusive [inhibitor, partial curve].

Which Potency does the source give for CCc1ccc(Nc2cc(C(=O)NCCCN3CCOCC3)c3ccccc3n2)cc1 here?
The Potency was inconclusive [inhibitor, partial curve].

For CCOC(=O)N1CCN(CC(=O)Nc2ccc(F)c(F)c2)CC1, which Potency is on record?
The Potency was “inactive”.

For Cc1nn(-c2cc(N3CCCCCC3)ccc2[N+](=O)[O-])c(=O)c2ccccc12, which Potency is on record?
Its Potency is active: 12.6 µM.

For COc1ccc(O)c(/C=N/NC(=O)CSc2nnc(C)n2-c2ccccc2)c1, which Potency is on record?
The Potency was inconclusive [inhibitor, single point].

For Cc1nc(C)c(-c2csc(Nc3ccc(N)cc3)n2)s1, which Potency is on record?
Its Potency is inconclusive [inhibitor, partial curve].

For Cc1cc2[nH]c3ccccc3c2c(C)n1, which activity change, negative = inhibition is on record?
Its activity change, negative = inhibition is inconclusive: -39.5% [inhibitor].

For O=C1c2ccccc2C(Nc2ccc(-c3nc4ccccc4[nH]3)cc2)N1Cc1ccco1 (centres undefined), which Potency is on record?
The Potency was active: 10 µM.

For CSc1ccc(CN2CCSCC2)cc1, which Potency is on record?
The Potency was “inactive”.

With Cc1c(N/N=C(\C#N)C(=O)c2ccc(Cl)cc2)c(=O)n(-c2ccccc2)n1C as the molecule, how does the Potency read?
The Potency was inconclusive [inhibitor, partial curve].

With CN1CCN(c2ncnc3c2[nH]c2ccc(F)cc23)CC1 as the molecule, how does the Potency read?
The Potency was active: 10 µM.

Which Potency does the source give for CCOC(=O)c1c(NC(=O)CSc2nc3cc(Cl)ccc3c(=O)n2Cc2ccco2)sc(C(=O)N(C)C)c1C here?
Its Potency is inconclusive [inhibitor, partial curve].

With CCOC(=O)c1c(NC(=O)CSc2nnc(CN3CCOCC3)n2C)sc2c1CCCC2 as the molecule, how does the Potency read?
Its Potency is active: 22.4 µM.

Which Potency does the source give for S=C(c1cn(Cc2ccc(Br)cc2)c2ccccc12)N1CCOCC1 here?
The Potency was inconclusive [inhibitor, single point].

For CCOC(=O)C1CCCN(C(=O)Nc2cccc(Cl)c2)C1 (centres undefined), which Potency is on record?
Its Potency is inconclusive [inhibitor, single point].

With COc1cc(-c2onc3ccc(Br)cc23)cc(OC)c1OC as the molecule, how does the Potency read?
Its Potency is inconclusive [inhibitor, partial curve].

For NS(=O)(=O)c1ccc(NC(=S)NCc2ccccc2)cc1, which Potency is on record?
The Potency was “inactive”.

Which Potency does the source give for CCOC(=O)C1CCCN(C2=NC(=O)/C(=C/c3ccc(N(C)C)cc3)S2)C1 (centres undefined) here?
Its Potency is “inactive”.

With CCOC(=O)c1c(C)[nH]c(C(=O)OCC(=O)N(C)CC(=O)Nc2ccccc2Cl)c1C as the molecule, how does the Potency read?
Its Potency is inconclusive [inhibitor, partial curve].

For O=C1OC(N2C(=O)CC[C@H]2C(=O)Nc2ccc(Br)cc2F)c2ccccc21 (some centres undefined), which Potency is on record?
Its Potency is “inactive”.

With CC(c1ccccc1)N(NC(=O)C(O)(c1ccccc1)c1ccccc1)C(=O)c1ccccc1 (centres undefined) as the molecule, how does the Potency read?
The Potency was inconclusive [inhibitor, single point].

Which Potency does the source give for COc1ccc2nc(NS(=O)(=O)c3ccc(NC(C)=O)cc3)sc2c1 here?
The Potency was “inactive”.

For FC(F)(F)c1cc(-c2ccco2)nc(NCc2ccccc2)n1, which Potency is on record?
Its Potency is inconclusive [inhibitor, single point].

For O=C(Cc1ccc(S(=O)(=O)N2CCOCC2)s1)N1CCN(c2ccc(C(F)(F)F)cc2[N+](=O)[O-])CC1, which Potency is on record?
The Potency was inconclusive [inhibitor, partial curve].

Which Potency does the source give for Cc1cc2ccccn2c1C(=O)c1ccc(F)cc1 here?
Its Potency is inconclusive [inhibitor, partial curve].

With CC(C)C[C@H](NC(=O)C1(c2ccccc2)CCN(C(=O)OC(C)(C)C)CC1)C(=O)N1CCC[C@H]1C(=O)O as the molecule, how does the Potency read?
Its Potency is inconclusive [inhibitor, single point].

With Cc1c(NC(=O)c2nn3c(C(F)(F)F)cc(-c4ccccc4)nc3c2Br)c(=O)n(-c2ccccc2)n1C as the molecule, how does the Potency read?
Its Potency is inconclusive [inhibitor, full curve].

Which Potency does the source give for CC(=O)n1c2ccccc2c2ccccc21 here?
Its Potency is inconclusive [inhibitor, single point].

For Cn1c(NC(=O)/C=C/c2ccccc2)cc(=O)n(C)c1=O, which Potency is on record?
Its Potency is inconclusive [inhibitor, partial curve, poor fit].

For O=C(Cc1cccc2ccccc12)N/N=C/c1ccc2cccc(O)c2n1, which Potency is on record?
The Potency was inconclusive [inhibitor, single point].

For O=C(CSc1ccccc1)NC(=O)NCc1ccccc1, which Potency is on record?
Its Potency is “inactive”.

With O=C(CSc1ccc(S(=O)(=O)N2CCOCC2)cn1)Nc1ccc(F)c(F)c1 as the molecule, how does the Potency read?
The Potency was active: 6.31 µM.

For COc1ccc(NS(=O)(=O)c2cc(NC(=O)c3ccccc3F)ccc2N2CCCC2)cc1, which Potency is on record?
The Potency was inconclusive [inhibitor, partial curve].

With O=C(N/N=C/c1c(F)cccc1Cl)c1cc(C2CC2)[nH]n1 as the molecule, how does the Potency read?
Its Potency is “inactive”.

With Cc1ccc(NC(=O)C(C)c2ccc(-c3ccccc3)c(F)c2)cc1 (centres undefined) as the molecule, how does the Potency read?
The Potency was inconclusive [inhibitor, partial curve].

For O=C(c1cccc(S(=O)(=O)N2CCOCC2)c1)N1CCC(Cc2ccccc2)CC1, which Potency is on record?
Its Potency is inconclusive [inhibitor, full curve, poor fit].

With CCCCNC(=O)C(C)N(CCN(C)C)C(=O)CCCCCN1C(=O)NC(c2ccc(Cl)cc2)C(C(=O)OCc2ccccc2)=C1C (centres undefined) as the molecule, how does the Potency read?
The Potency was active: 11.2 µM.

For Cc1nc2ccc(NC(=O)c3ccc(Cl)c(S(=O)(=O)N(C)c4ccccc4)c3)cc2s1, which Potency is on record?
The Potency was inconclusive [inhibitor, full curve].

Which activity change, negative = inhibition does the source give for COc1ccc(CN(C)C(=O)Cc2ccc(OC)c(S(=O)(=O)N3CCOCC3)c2)cc1 here?
The activity change, negative = inhibition was inconclusive: -79.8% [inhibitor].
